# In PubChem BioAssay AID488969 (Vanderbilt High Throughput Screening Facility, 2010):
# The full ranking holds about 110,000 compounds; the median of “z-score” is about -0.1, and the highest 2% start at about 2. The list shows a part of the results. Active and inactive are the calls of the source.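 The calls were made as follows: active = z-score in the third read window above 3 or below -3; inactive = the rest.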
# Molecular target: Metabotropic glutamate receptor 8 (Rattus norvegicus) (UniProt P70579)
# Sequence of UniProt P70579 (P70579 whole entry, looked up): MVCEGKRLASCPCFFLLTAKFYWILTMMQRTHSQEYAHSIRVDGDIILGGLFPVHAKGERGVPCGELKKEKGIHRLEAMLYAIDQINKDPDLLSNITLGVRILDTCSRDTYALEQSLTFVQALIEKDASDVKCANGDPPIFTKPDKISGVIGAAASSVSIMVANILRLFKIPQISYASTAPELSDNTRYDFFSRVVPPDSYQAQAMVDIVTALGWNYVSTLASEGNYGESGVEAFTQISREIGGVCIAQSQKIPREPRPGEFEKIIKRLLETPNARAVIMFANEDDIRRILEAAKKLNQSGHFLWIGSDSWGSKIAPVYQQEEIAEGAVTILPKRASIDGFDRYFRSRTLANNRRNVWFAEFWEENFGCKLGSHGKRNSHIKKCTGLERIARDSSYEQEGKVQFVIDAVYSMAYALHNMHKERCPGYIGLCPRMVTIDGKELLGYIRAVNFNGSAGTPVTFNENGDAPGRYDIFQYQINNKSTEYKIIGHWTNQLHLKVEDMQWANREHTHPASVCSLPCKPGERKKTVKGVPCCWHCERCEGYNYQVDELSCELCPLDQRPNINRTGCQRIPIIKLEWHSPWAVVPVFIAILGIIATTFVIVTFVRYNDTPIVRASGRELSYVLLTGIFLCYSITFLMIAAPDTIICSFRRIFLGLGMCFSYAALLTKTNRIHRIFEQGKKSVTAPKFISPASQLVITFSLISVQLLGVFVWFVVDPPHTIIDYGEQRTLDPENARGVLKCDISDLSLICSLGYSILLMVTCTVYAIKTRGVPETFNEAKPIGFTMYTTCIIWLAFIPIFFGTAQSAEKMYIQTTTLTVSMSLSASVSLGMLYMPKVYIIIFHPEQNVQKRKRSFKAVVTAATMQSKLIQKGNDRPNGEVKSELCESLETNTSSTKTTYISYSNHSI
# Assay: mGluR8 Gi/Go-coupled signaling modulation – cell-based, rat, thallium flux, HTS, primary screen (AID 488969)
# Details: HEK293 rat mGluR8, GIRK (G protein-gated inwardly rectifying potassium channel) thallium flux, FluoZin2; at 10 µM; stronger effect = higher value; submaximal glutamate (EC20) added with thallium
row,Compound,z-score
1,COc1ccc(N2Cc3cccc(C(=O)NC(C)CCc4ccco4)c3C2=O)cc1 (stereo not drawn),-1.24
2,O=C(Cn1ccc2ccccc2c1=O)NCCC(=O)Nc1cccnc1,0.609
3,Cc1cc(C)n2nc(S(=O)(=O)N(C)Cc3ccccc3)nc2n1,1.11
4,CCc1nnc(NC(=O)CSc2nnc(C3CCCCC3)n2-c2cccc(Cl)c2)s1,active: -3.11
5,CC(C)(C(=O)c1ccccc1)/[N+]([O-])=C/c1ccccc1,-0.279
6,COc1ccc(OC)c(NC(=S)N2CCN(C/C=C/c3ccccc3)CC2)c1,-0.183
7,CCCCCn1c(=N)n(CC(O)COc2ccccc2OC)c2ccccc21 (stereo not drawn),-1.11
8,COc1ccc(NS(=O)(=O)c2ccc(NC(=S)NC(=O)c3cccc(F)c3)cc2)nn1,-0.167
9,CCOC(=O)C(Cc1ccccc1)C(=O)Nc1cccc(C)c1 (stereo not drawn),-0.552
10,CCc1cc(=O)oc2cc(OCC(=O)N(CC)CC)c(Cl)cc12,-0.13
11,COC(=O)c1[nH]c2ccc(C)cc2c1NC(=O)Nc1ccccc1OC,0.195
12,O=C(CSc1ccc(Cl)cc1)Nc1cccc(NC(=O)c2ccco2)c1,-0.78
13,CCOC(=O)c1cc(C(=O)OCC)c2cccc(C)n2c1=O,-0.264
14,Cc1cc(C)n(C(=O)c2ccc(NC(=O)C3CC3)cc2)n1,-0.0142
15,CCC1Oc2ccc(C)cc2N(CC(=O)NCCc2ccc(OC)c(OC)c2)C1=O (stereo not drawn),0.0801
16,CC(Sc1nc(-c2ccccc2)nc2c1COC(C)(C)C2)C(=O)N1CCOCC1 (stereo not drawn),-0.259
17,O=C(Nc1ccc(Cl)cc1-c1nc2ccccc2s1)c1ccco1,-0.0775
18,CCOc1cc(CN2CCN(CCOCCO)CC2)ccc1OC,-0.0768
19,Cn1c(=O)oc2cc(S(=O)(=O)NCCC(=O)N3CCc4ccccc43)ccc21,-0.0872
20,N#Cc1c2c(c(=S)n(-c3ccccc3)c1N)CCCC2,-0.205
21,CCOC(=O)c1[nH]c2ccc(Cl)cc2c1-c1ccccc1,-0.128
22,COC(=O)c1c(NC(=O)c2ccccc2[N+](=O)[O-])sc2c1CC(C)(C)NC2(C)C,0.735

row,Compound,z-score
1,COc1ccc(NC(=O)CN2C(=O)C(c3ccccc3)=NC23CCCCCC3)cc1OC,-0.217
2,CCOC(=O)c1ccc(NC(=O)CSc2nc3ncccc3[nH]2)cc1,0.152
3,CCC(C)n1c(SCC(=O)Nc2ccccc2C(F)(F)F)nc2ccsc2c1=O (stereo not drawn),-1.41
4,O=C(Nc1ccccc1)Nc1cc(S(=O)(=O)N2CCOCC2)ccc1N1CCCC1,-0.185
5,CCOC(=O)C1CCN(C(=O)c2c(-c3c(F)cccc3Cl)noc2C)CC1,0.439
6,Cc1onc(-c2ccccc2)c1C(=O)Nc1ccc(S(=O)(=O)NC2=NCCCCC2)cc1,0.349
7,CCC(C)NC(=O)c1ccc(CS(=O)(=O)c2ccc(OC)cc2)o1 (stereo not drawn),-0.101
8,O=C(CNC(=O)C1COc2ccccc2O1)N/N=C\c1cccc(O)c1 (stereo not drawn),-0.458
9,Cc1cc2c(n1-c1ccc(C(N)=O)cc1)CC(C)(C)CC2=O,0.0347
10,Cc1c(C(=O)Nc2ccc(-n3cnnn3)cc2)oc2ccccc12,0.556
11,O=S(=O)(c1cnccc1N1CCN(/N=C/c2ccc(Cl)cc2)CC1)N1CCCCC1,-0.388
12,COc1ccc(/C=N/NC(=O)C(N)=O)c(OC)c1OC,-0.0372
13,CC(C)NC(=O)Cn1nc(C(F)(F)F)c2c1CCC2,-0.11
14,CCCC(=O)N=C1SC2CS(=O)(=O)CC2N1c1ccc(CC)cc1 (stereo not drawn),0.00987
15,CCSc1nnc(NC(=O)C(C)Sc2nc3ccccc3[nH]2)s1 (stereo not drawn),1.73
16,COc1ccc(OCC(O)CNC(=O)c2ccc(Br)cc2)cc1 (stereo not drawn),-0.0997
17,O=C(c1ccco1)N1CCN(c2cc(=O)n(-c3ccc(Cl)cc3)c(=O)[nH]2)CC1,-0.434
18,COc1ccc(OC)c(-c2cc(C(F)(F)F)c3c(n2)sc2c(O)cc(=O)[nH]c23)c1,-0.747
19,O=C(Nc1ncc(Cc2cccc(Cl)c2)s1)C1CCCO1 (stereo not drawn),-1.83
20,COc1ccc(Br)cc1CN(C)CC(=O)Nc1cc([N+](=O)[O-])ccc1OC,-0.333
21,C=C(C)CNC(=S)NNC(=O)CCn1c2cc(Cl)ccc2c2ccc(Cl)cc21,0.249
22,C=CCNc1oc(/C=C/c2ccccc2)nc1C#N,-0.179

row,Compound,z-score
1,COC(=O)c1ccc(NC(=O)Cc2ccccc2)cc1,0.253
2,COc1ccc(Cl)cc1N(CC(=O)NC(C)(C)C)S(=O)(=O)c1ccc(C)c([N+](=O)[O-])c1,-0.264
3,Cc1ccc(S(=O)(=O)N2CCCC(c3nnc4n3-c3ccccc3SC4)C2)cc1 (stereo not drawn),-1.39
4,CCCCNC(=O)Nc1nnc(-c2ccccc2)o1,-0.218
5,COc1ccccc1CNC(=O)C1CCN(S(=O)(=O)c2cccc3cccnc23)CC1,0.287
6,O=S(=O)(/C=C/c1ccccc1)Oc1ccccc1,-0.844
7,Cc1ccc(-c2cc(-c3ccc(C)o3)nc(N)c2C#N)cc1,-0.0155
8,Cc1ccc([N+](=O)[O-])cc1NC(=S)NC(=O)c1cccs1,2.46
9,O=S(=O)(Nc1ccc2c(c1)OCCO2)c1cccs1,-0.0707
10,CC(=O)c1cccc(NC(=S)NC(=O)c2ccc(Cl)cc2)c1,-0.258
11,CCn1cnc2c1c(=O)n(Cc1csc(-c3ccccc3)n1)c(=O)n2Cc1ccccc1,-1.3
12,O=C(NC(=S)NCCN1CCOCC1)c1ccccc1,-0.0216
13,COc1ccccc1-c1nnc(SCC(=O)N2CC(C)CC(C)C2)o1 (stereo not drawn),-1.06
14,Cc1ccc(-c2nnn(CC(=O)NC3CC4CCC3C4)n2)cc1 (stereo not drawn),active: 5.1
15,CN(c1ccccc1C(=O)Nc1ccc2c(c1)OCO2)S(C)(=O)=O,0.257
16,O=C(c1ccc(S(=O)(=O)N2CCCCC2)cc1)N1CCCc2ccccc21,-0.234
17,COc1cccc(CNc2nc3nc(C)c(Cl)c(C)n3n2)c1,0.0342
18,COc1ccccc1N=c1sc2ccccc2n1C,-0.334
19,COc1ccc(/C(O)=C2\C(=O)C(=O)N(Cc3ccco3)C2c2cc(OC)ccc2OC)cc1 (stereo not drawn),-1.65
20,COC(=O)c1c(NC(=O)CSc2nnc(-c3ccco3)n2C)sc(C)c1C,-0.543
21,Cc1cc(C)cc(NC(=O)C(OC(=O)C2=COCCO2)c2ccccc2)c1 (stereo not drawn),-0.0119
22,Cc1cc(C)cc(OCC(=O)OCC(=O)c2c(N)n(C)c(=O)n(C)c2=O)c1,-0.762

row,Compound,z-score
1,CC(C)(C)C(=O)COC(=O)CNC(=O)c1ccc(Oc2ccccc2)cc1,-0.933
2,COc1ccc(Cl)cc1NC(=S)NCCSc1ccc(C)cc1,0.00838
3,CCC(=O)N1c2ccc(S(=O)(=O)CCC(=O)N3CCn4c3nc3ccccc34)cc2CC1C (stereo not drawn),-0.344
4,CC1(C)Cc2nc3sc4c(=O)[nH]cnc4c3cc2CS1,-0.851
5,Cc1ccc(-n2c(=O)cc(N3CCc4ccccc4C3)[nH]c2=O)cc1,-0.52
6,Clc1ccc(-c2c[n+](Cc3ccc(Cl)c(Cl)c3)c3n2CCC3)cc1,-0.0432
7,COc1ccc(-c2cc(C(=O)OCC(=O)Nc3cc(C)on3)c3ccccc3n2)cc1OC,0.365
8,Cc1ccc(C(C)C)c(OCC(=O)Nc2ccc3c(c2)nc(CN2CCCC2)n3C)c1,1.05
9,CCC1CCC(C(=O)NC(C(=O)Nc2ccc3c(c2)OCCO3)C(C)C)CC1 (stereo not drawn),-0.415
10,CCOC(=O)c1c(-c2cccs2)csc1NC(=O)c1ccco1,-0.0478
11,Cc1cc(C)c2c(n1)sc1c(=O)n(Cc3ccccc3Cl)nnc12,-0.506
12,COc1ccc(-c2csc(NC(=O)COC(=O)Cc3ccc(Cl)cc3Cl)n2)cc1,-0.0844
13,CCC(C)[C@@H](N)C(=O)N/N=C/c1ccc2ncccc2c1 (stereo partly drawn),-0.156
14,Cc1cccc(NC(=O)C(c2cccc([N+](=O)[O-])c2)N2CCCCC2)c1 (stereo not drawn),-0.091
15,O=C(CN1C2=NCCN2c2ccccc21)c1ccc(Br)s1,0.52
16,CC(C)N=C(Nc1ccc(Cl)cc1)c1cccnc1,0.0919
17,COc1ccc(OC)c(CCNC(=O)Cn2sc3nc(C)cc(C)c3c2=O)c1,2.22
18,CC(C)NC(=O)c1onc(CSc2ccc(F)c(F)c2)c1C(=O)O,-1.59
19,CC(C)c1ccc(S(=O)(=O)N2CCN(CCC(=O)Nc3ccc(N(C)C)cc3)CC2)cc1,-0.439
20,Cc1cc(C)nc(SCC(=O)Nc2ccc(N3CCOCC3)c(Cl)c2)n1,0.243
21,CCc1ccc(OCC(=O)NCCOc2ccccc2)cc1,0.127
22,CCCc1[nH]nc2c1C(c1cc(OC)cc(OC)c1)C(C#N)=C(N)O2 (stereo not drawn),0.365

row,Compound,z-score
1,Cc1ccc(-n2cccc2/C=N/n2cnnc2)cc1Cl,0.0564
2,O=C(CN1CCCC1)Nc1ccc(NC(=O)Nc2ccccc2)cc1,-0.0128
3,COC(=O)c1ccc(OCC(O)CN2CCC(C)CC2)cc1 (stereo not drawn),0.401
4,CCCCn1nnnc1NCc1cccnc1,-0.231
5,O=C(Nc1c(C(=O)Nc2ccccc2)cnn1-c1ccccc1)c1ccco1,-0.00305
6,CCN(Cc1ccccc1)C(=O)C1CCN(CC2CC=CCC2)CC1 (stereo not drawn),-0.431
7,CCn1c(SCc2ccc(Cl)c(Cl)c2)nnc1C(C)NC(=O)c1ccc(OC)cc1 (stereo not drawn),-0.249
8,Cc1ccc(C(=O)/C=C/c2c(C)nn(-c3ccccc3)c2Cl)cc1,-0.1
9,Cc1cccc(NC(=S)Nc2ccc3cn[nH]c3c2)c1,0.1
10,COc1ccc(C)cc1NCc1cc(=O)oc2cc(-c3ccccc3)c(O)cc12,-0.102
11,CCOC(=O)N1CCN(C(=O)COc2ccc(S(=O)(=O)NCc3ccccc3)cc2)CC1,-0.288
12,c1ccc(-c2csc3ncnc(-n4cnc5ccccc54)c23)cc1,-0.602
13,COc1ccc(-c2noc(CN3C(=O)c4ccccc4C3=O)n2)cc1,-0.747
14,c1ccc(CCN2CN(CCCN3CCOCC3)c3nc4ccccc4n3C2)cc1,-0.246
15,CCc1cccc(CC)c1-n1c(SCc2cc(=O)n3ccsc3n2)nnc1-c1cccnc1,-0.388
16,CCCCCOC(=O)CC(C(=O)OCCCCC)N1CCCCC1 (stereo not drawn),-0.0432
17,CCS(=O)(=O)c1ccc(-c2csc(-c3ccccc3)n2)c(Cl)c1Cl,0.0564
18,Cc1cc(C)nc(SCc2nc(N)nc(-c3ccccc3O)n2)n1,0.373
19,Cc1oc(-c2ccc(Cl)cc2)nc1CN1CCCC(C(=O)NCCCN2CCCC2=O)C1 (stereo not drawn),-0.344
20,CCOC(=O)c1c(CSC(=N)N)n(-c2ccc(C)cc2)c2cc(Br)c(OC(C)=O)cc12,1.29
